Experimental findings from PubChem BioAssay AID1240 (Sanford-Burnham Center for Chemical Genomics, 2008) are described below.

Molecules are shown by their SMILES. The campaign covered roughly 50,000 compounds. About 800 (1.6%) showed an effect of 50% or more. The list shows a part of the results.

The target of this assay is Bcl-2-like protein 10 (Homo sapiens) (UniProt Q9HD36). As to the kind of experiment: Phenotype converters, Bcl-B/TR3 peptide binding displacement, primary biochemical FP (AID 1240).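 Also: 0% = Bcl-B with tracer peptide and DMSO and 100% = tracer peptide lacking Bcl-B.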 Particulars: GST-Bcl-B / FITC-TR3 peptide fluorescence polarization; stronger effect = higher value; compound at 3.75 mg/L. (Fluorescence polarisation rises when a labelled molecule tumbles more slowly, as on binding a larger partner.)
Sequence of UniProt Q9HD36 (Q9HD36 whole entry, looked up): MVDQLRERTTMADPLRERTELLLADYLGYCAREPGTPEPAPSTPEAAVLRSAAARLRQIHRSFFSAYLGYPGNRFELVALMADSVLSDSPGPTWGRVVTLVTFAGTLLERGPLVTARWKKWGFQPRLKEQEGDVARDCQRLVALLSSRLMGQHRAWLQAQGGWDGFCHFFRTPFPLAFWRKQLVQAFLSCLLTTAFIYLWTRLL
As to `Fc1c(F)c(F)c2c(c1F)Oc1ccccc1O2`, the displacement was 11.8%.
Turning to `CC(C)CC(=O)N1CCN(Cc2ccccc2F)CC1`, the displacement is -16.6%.
Next, `COc1ccccc1OCC(=O)Nc1ccc(Nc2ccccc2)cc1`: 15%.
Next, `COc1cccc(/C=N/Nc2ncc(Br)cn2)c1O`: -10.9%; `Cc1ccc(NC(=O)COc2ccccc2C)c([N+](=O)[O-])c1`: -2.9%; `COc1ccc(NC(=O)Cc2ccccc2OC)c(OC)c1`: 7.1%.
For the compound `CN(C)CCOC(=O)CCN1C(=O)/C(=C/c2ccccc2Cl)SC1=S`, the displacement was determined as 17.4%.
Consider `O=C(CC(c1ccccc1)c1ccccc1)Nc1ccccc1Br`, for which the displacement is -11.6%.
Under `O=C(c1nc2nc(-c3ccccc3)cc(C(F)(F)F)n2n1)N1CCCCC1` stands -13.9%.
Next, `CC(C)=CCCC(C)NC(=O)NC1CCCCC1` (configuration not stated): 5.7%; `O=C1C(=O)N(Cc2cccnc2)C(c2ccc(F)cc2)/C1=C(\O)c1ccccc1` (configuration not stated): -8%; `CN1C(=O)C(c2ccc(O)cc2)(c2ccc(O)cc2)c2ccccc21`: -0.7%.
Next, `CCCCc1nc(N)c(C#N)c(-c2ccco2)c1CCC`: 8.4%; `O=C1C(=O)N(c2cccnc2)C(c2ccc(Br)cc2)/C1=C(\O)c1ccc(Cl)cc1` (configuration not stated): -4.9%.
In the case of `Clc1ccc(C2=CSC3=NCCN23)cc1`, the displacement worked out at 6.3%.
With `COc1ccc(S(=O)(=O)N2CCc3ccccc32)cc1`, the displacement is -13.5%.
Next, `COc1cccc(N2C(=O)C=C(C)C2=O)c1`: 1.4%.
Next, `Cc1ccc(C(=O)C[n+]2cc(-c3ccccc3)n3c2CCCCC3)cc1`: 2.5%; `Fc1ccc(-c2csc(Nc3ccc(Cl)cc3)n2)cc1`: -1.6%.
For the compound `COn1c(=O)c(-c2ccccc2)[n+]([O-])c2ccccc21`, the displacement is 15.9%.
Next, `O=C(CSc1ccc2ccccc2n1)N/N=C/c1ccc(Br)cc1`: -4.8%; `Cc1c(C(=O)O/N=C(\N)Cc2ccc(Cl)cc2Cl)cccc1[N+](=O)[O-]`: 13%.
Next, `O=C(CC1(C(F)(F)F)NCCO1)c1cccs1` (configuration not stated): -8.4%.
On to `COc1ccc(C(=O)N2CCN(C(=O)c3ccco3)CC2)cc1OC`, for which the displacement is -13.5%.
Next, `COc1cc(/C=c2\sc3nc4ccccc4n3c2=O)cc(Cl)c1OCc1ccccc1Cl`: 2.3%.
Next, `Cc1ccc(NC(=O)c2c(N)sc3c2CCC3)c(C)c1`: -16.9%.
Under `COc1ccc(C2Nc3ccccc3C(=O)N2Cc2ccccc2)cc1Cn1cc([N+](=O)[O-])cn1` (configuration not stated) stands 13.2%.
On to `CC1=C(C(=O)OCC2CCCO2)C(c2cccc(O)c2)NC(=O)N1` (configuration not stated), for which the displacement was determined as 9.3%.
For `Cc1cc(/C=N/NC(N)=O)c(C)n1-c1ccc(N(C)C)cc1`, the displacement came to 33.9%.
Next, `COc1ccccc1NC(=O)C(Cc1ccccc1)NS(=O)(=O)c1ccc(C)cc1` (configuration not stated): 2.8%; `O=Cc1ccc(OC(=O)c2ccccc2I)cc1`: 6.7%.
Under `COc1cc([N+](=O)[O-])ccc1NC(=O)COc1cccc(C)c1` stands -8.5%; under `O=C(Nc1ccccc1C(=O)N1CCCC1)c1cccc(F)c1`, -13.6%; under `CCc1cccc(NC(=O)C2CC=CCC2C(=O)O)c1` (configuration not stated), -6.5%.
With `COc1ccc(/C=C/C(=O)NCCCN2CCOCC2)cc1`, the displacement was 13.1%.
Next, `CC(=O)Nc1ccc(S(=O)(=O)Nc2cc(C)cc(C)c2)cc1`: 11.2%; `O=C(Nc1ccc(F)cc1F)c1nn2c(c1Cl)NC(c1cccs1)CC2C(F)(F)F` (configuration not stated): 0.7%.
As to `O=C(/C=C(\O)c1cccc([N+](=O)[O-])c1)C(F)(F)F`, the displacement came to 2.8%.
Next, `O=C(Nc1ccc(Br)c(Cl)c1)c1ccco1`: 12.6%.
Under `CCOC(=O)c1ccc(-n2sc3c(c2=S)-c2ccccc2NC3(C)C)cc1` stands 8.2%; under `CCOc1cc(C2C(C(=O)OC(C)C)=C(C)NC3=C2C(=O)CCC3)cc([N+](=O)[O-])c1O` (configuration not stated), -0.2%.
Next, `N#Cc1ccccc1N=C1C(=O)Nc2ccccc21`: 14.4%; `COC(=O)c1ccccc1-c1ccc(/C=C2/SC(=S)N(c3ccccc3)C2=O)o1`: 70%.
Turning to `Cc1ccc2c(Cl)c(C(=O)N3CCN(C)CC3)sc2c1`, the displacement was -12.7%.
As to `COc1ccccc1OCCOCCOc1ccccc1OC`, the displacement is 12.1%.
Under `CC(=O)N(OCON(C(C)=O)C(C)=O)C(C)=O` stands -11.5%; under `CCOC(=O)c1ccccc1NS(=O)(=O)c1ccc(OC)c(OC)c1`, 8%; under `O=[N+]([O-])c1ccc(C(O)C23CN4CN(CN(C4)C2)C3)cc1` (configuration not stated), 1.2%.
As for `COc1ccc(Oc2c(C(F)(F)F)oc3c(CN(C)C)c(O)ccc3c2=O)cc1`, the displacement was 3.5%.
Under `C=CCn1c(CCCN2C(=O)c3cccc4cccc(c34)C2=O)nnc1SC/C=C/c1ccccc1` stands -6.5%.
Turning to `O=C1c2ccccc2C(=O)N1c1cccc(S(=O)(=O)N2CCCCC2)c1`, the displacement was 9.3%.
Next, `COC(=O)c1sccc1NS(=O)(=O)c1ccc(OC)cc1`: -4.7%; `COc1ccc(/C=N/NC(=O)c2cc(-c3ccc(Cl)cc3)n[nH]2)cc1`: 10%; `COc1ccc(S(=O)(=O)N2CCN(Cc3cccn3C)CC2)cc1`: -7%.
For `COc1ccc2nc(SCC(=O)NCCc3ccccc3)[nH]c2c1`, the displacement was -0.4%.
Under `CN(C)CCCNC(=O)/C=C/c1ccc(C(C)(C)C)cc1` stands 6.4%; under `Cc1cccnc1NC(=O)Nc1cccc(F)c1`, -1.7%.
Next, `O=C(N/N=C/c1ccc(C(=O)O)cc1)C(=O)N1CCCCCC1`: -13.8%; `COC(=O)C1=C(C)NC2=C(C(=O)CC(C)(C)C2)C1c1cccc(Cl)c1` (configuration not stated): 2.8%; `Cc1cc(Cl)ccc1NC(=O)c1ccccc1[N+](=O)[O-]`: -4.1%.
Next, `CC(Cc1ccccc1)NC(=O)CC(c1ccccc1)c1ccc(O)c(Cl)c1Cl` (configuration not stated): 2.6%; `CCOC(=O)c1ccc(Nc2nc3nonc3nc2NC(C)C)cc1`: -7.1%; `CC1(c2ccccc2)CC(C)(C)N(C(N)=O)c2ccccc21` (configuration not stated): 4.5%.
With `O=C(O)CSc1nc2ccc(N3C(=O)C4CCCCC4C3=O)cc2s1` (configuration not stated), the displacement worked out at 5.9%.
As for `COC(=O)CN(c1cc(Cl)ccc1OC)S(=O)(=O)c1ccc(C)c([N+](=O)[O-])c1`, the displacement worked out at 5.7%.
Under `CC(=O)Nc1ccc(C(=O)NCCCN(C)C)cc1` stands -6.4%; under `Cc1c(OCC(=O)OCc2ccccc2)ccc2c3c(c(=O)oc12)CCCC3`, -2.6%.
Turning to `CC(=O)Nc1cccc(-c2nnc(-c3cccc(NC(C)=O)c3)o2)c1`, the displacement is -11.4%.
Under `CC(C)=CC1C=C(C)C(C)C(C(=O)O)C1C(=O)O` (configuration not stated) stands 9.4%; under `COc1ccc(CC2S/C(=N\N=C\c3ccc(C(C)C)cc3)NC2=O)cc1` (configuration not stated), 3.4%.
Under `O=C(Nc1nc(-c2ccc(-c3ccccc3)cc2)cs1)C1CC1` stands -1.1%; under `COc1ccc(-n2c(C=C3C(=O)Nc4ccc(C)cc43)nc3ccccc3c2=O)cc1`, 5.5%.
Next, `COC(=O)c1sccc1NC(=O)CCc1ccccc1`: -6.8%; `Cc1cc(OCC(O)CN2CCN(CCO)CC2)cc(C)c1Cl` (configuration not stated): -5.1%; `O=C(CCCN1C(=O)/C(=C/c2ccccc2)SC1=S)Nc1ccc(O)cc1`: 10.6%.
For the compound `O=C1C=CC(=NS(=O)(=O)c2cc(Cl)ccc2Cl)C=C1`, the displacement worked out at 10.6%.
Next, `Cc1ccc(-c2cc3nc(C)c(C)c(=O)n3[nH]2)cc1`: -8%; `Cc1cc2ncn(C(=O)c3cccc(I)c3)c2cc1C`: -5.7%; `CC1=NN(C(=O)c2ccccc2)C(O)(c2ccc(Br)cc2)C1` (configuration not stated): -5.5%.
Under `CCOC(=O)C1=C(C)N=c2s/c(=C\c3ccco3)c(=O)n2C1c1cccc(OC)c1` (configuration not stated) stands -25.3%; under `CC1=C(C(=O)OC2CCCC2)C(c2ccccc2)C2=C(CC(C)(C)CC2=O)N1` (configuration not stated), 6.2%.
On to `COc1ccc(N=C2NC(=O)/C(=C\c3ccco3)S2)cc1`, for which the displacement turned out to be 7.4%.
Next, `O=C(/C=C/c1ccccc1Cl)N1CCCCCC1`: 11.9%; `C=CCNC(=O)C(=O)NCC1CCCO1` (configuration not stated): 9%.
`O=C(N/N=C/c1cccs1)c1cc(C2CC2)[nH]n1`: the displacement was -3.3%.
As for `CCOC(=O)c1c(NC(=O)OC)sc(C)c1CC`, the displacement was -59.7%.
Under `CC(C)C(NS(=O)(=O)c1ccccc1[N+](=O)[O-])C(=O)Nc1cccc2ccccc12` (configuration not stated) stands 7.8%; under `CCSc1nc2ccccc2n1CC(=O)Nc1c(C)cccc1C`, 6.7%.
Next, `CCOC(=O)CSc1nc2sc3c(c2c(=O)n1C1CCCCC1)CCCC3`: -1.1%; `O=C(Oc1ccc([N+](=O)[O-])cc1)c1cc(S(=O)(=O)N2CCCCC2)c(Cl)cc1Cl`: -8.7%.
Under `O=C(Nc1ccc2nc(SCc3ccc(F)cc3)sc2c1)c1ccccc1C(=O)N1CCCC1` stands -8.4%.
`C=CCn1c(=N)n(CC(O)c2ccc(C)cc2)c2ccccc21` (configuration not stated): the displacement was -7%.
Next, `O=C(Nc1ccc(OC(F)(F)F)cc1)c1cccc2c(Br)cccc12`: 5.8%; `Cc1ccccc1S(=O)(=O)NNC(=O)c1ccccc1O`: 4.7%.
Next, `O=C1c2ccccc2C(=O)N1Cc1nc2ccccc2c(=O)o1`: 4.2%; `Cc1cc(C)nc(NS(=O)(=O)c2ccc(NC(=O)CSc3nc(C)cc(C)n3)cc2)n1`: 4.1%; `O=C1OC(c2ccccc2)=C/C1=C/c1ccc(-c2ccc([N+](=O)[O-])cc2)o1`: -5.6%.
Under `C=CCOc1ccc(Cl)cc1/C=C1/C(=O)NN(c2ccccc2)C1=O` stands 9.7%.
Turning to `CCOC(=O)C(CCCCOc1ccccc1OC)C(=O)OCC`, the displacement turned out to be 3.7%.
Under `O=C(O)CCn1c(=S)n(CCC(=O)O)c2ccccc21` stands 2.6%; under `COc1ccc2c(Cl)c(C(=O)N3CCOCC3)sc2c1`, -17.4%; under `COc1ccccc1C(=O)N1CCN(Cc2cccc(Cl)c2)CC1`, -10.2%.
Next, `O=C(O)c1ccc(-c2ccc(/C=C3\SC(=S)N(c4cccc(F)c4)C3=O)o2)cc1`: -25.5%; `COc1cccc(OCc2cc(C3Nc4ccccc4C(=O)N3Cc3ccccc3)ccc2OC)c1` (configuration not stated): -6.9%; `Cc1cccc(C(=O)Nc2sc3c(c2C(=O)NCc2ccco2)CCC3)c1`: -19.6%.
Under `Nc1cccc(-c2nnc(-c3ccccc3)o2)c1` stands 4.5%; under `O=C1C2C3C=CC(C4CC34)C2C(=O)N1c1ccccc1F` (configuration not stated), -5.8%.
Turning to `O=C(c1ccccc1[N+](=O)[O-])N1CCC(Cc2ccccc2)CC1`, the displacement is -4%.
Next, `Cc1cccc(C(=O)N(C(=O)c2cccc(C)c2)c2ncccc2C)c1`: 20.7%; `Cc1cccc(CC(Cc2nc3ccccc3[nH]2)c2nc3ccccc3[nH]2)c1` (configuration not stated): -0.9%; `CCOc1cccc2c1NC(C)(C)C1=C2C2(SC(C(=O)OC)=C(C(=O)OC)S2)C(C(=O)OC)=C(C(=O)OC)S1`: 7.4%.
Consider `COc1ccc(-n2nc3cc(C)c(NC(=O)c4cccs4)cc3n2)cc1`, for which the displacement is -1.3%.
